{"source": "paper PMC12136788", "binders": {"B1": {"name": "ENSG00000196277:stop:overlap|stop_codon|ENSG00000196277|stop_codon|NA|stop_codon (ssRNA)", "RNA": "GGGAGUUCUACAGUCCGACGAUCCACCAGUAAGAAAGAGUGUACAAAAGUCUGUUACUUGGUACACUAUCCCACCAACAGUAUAGCUUUUGACUGCUUUCCCAAAGAUUUUUUUUUUUGGCUGUACAGUGGAACUUGGAUUACCAACAGAGGAUUGAGCAUCA"}, "B2": {"name": "chr2:157736639:157736676:-|3pUTR|ENSG00000115170|msi1_unk|total|mutant (ssRNA)", "RNA": "GGGAGUUCUACAGUCCGACGAUCCUUCACAUUUGUAUGUGUGCCGACUGUAACUUUUUUUCAGUUCAUAUGCAGAACGUAUUCCGCCAUUACCCACGUGACACCACCGAAUAUAUUACUGAUUCCGAAGCAAAGAUUUCAGUACAACAGAGGAUUGAGCAUCA"}, "B3": {"name": "chr8:12728900:12729063:-|CDS|ENSG00000154359|control|control|control (ssRNA)", "RNA": "GGGAGUUCUACAGUCCGACGAUCAACGUGCAUUUCUUACCGGACGGAAGGUCUGUGGUUGAUACAGUUGGAGGAAAGCGGUUUAGGGUUUUAAAAAGAGGAAUGAAAGAUGGAUAUUGCACUGCCGACAUUGAAUAUCUGGAACAACAGAGGAUUGAGCAUCA"}, "B4": {"name": "chr2:46903789:46903890:-|3pUTR|ENSG00000180398|msi1|total|mutant (ssRNA)", "RNA": "GGGAGUUCUACAGUCCGACGAUCAAAUUUCUGCAGCUGGCUUGAAUUUCUCCCCAGAAAAUGGGUUUUUCUUUUCUAUUGCACCGUCAGGCUGCAAAUUUCCAAACUUUUAUGCUUUGCUUCCCUUAUUUAUAAGGGAAUGCCCAACAGAGGAUUGAGCAUCA"}, "B5": {"name": "chr14:50159683:50159784:-|CDS|ENSG00000100485|unk|FALSE|unique (ssRNA)", "RNA": "GGGAGUUCUACAGUCCGACGAUCGAGGAAAAUACAAAUUUGUGAUAAAGAAGAUACUUGUGAGCACAAGCAUGCAUUUGAAUUAGUAUCCAAAGAUGAGAACAGCAUAAUAUUUGCUGCUAAGUCUGCUGAAGAAAAAAACAACAACAGAGGAUUGAGCAUCA"}, "B6": {"name": "ENSG00000070961:be:win_3251|CDS|ENSG00000070961|bound_else_gene|NA|bound_elsewhere_windowed (ssRNA)", "RNA": "GGGAGUUCUACAGUCCGACGAUCAGGAAUUAGCAGAGGAUGUUGAAGAGAUUGAUCACGCUGAAAGGGAGUUGCGGCGUGGCCAAAUCUUGUGGUUUAGAGGUCUGAACAGAAUCCAAACACAGAUUCGAGUGGUGAAUGCAUCAACAGAGGAUUGAGCAUCA"}}, "note": "This is one part of the list.", "data": [{"target": "T1, UNK ZnF1-6 (called full-length) (human, UniProt Q9C0B0 30-357)", "T1 sequence": "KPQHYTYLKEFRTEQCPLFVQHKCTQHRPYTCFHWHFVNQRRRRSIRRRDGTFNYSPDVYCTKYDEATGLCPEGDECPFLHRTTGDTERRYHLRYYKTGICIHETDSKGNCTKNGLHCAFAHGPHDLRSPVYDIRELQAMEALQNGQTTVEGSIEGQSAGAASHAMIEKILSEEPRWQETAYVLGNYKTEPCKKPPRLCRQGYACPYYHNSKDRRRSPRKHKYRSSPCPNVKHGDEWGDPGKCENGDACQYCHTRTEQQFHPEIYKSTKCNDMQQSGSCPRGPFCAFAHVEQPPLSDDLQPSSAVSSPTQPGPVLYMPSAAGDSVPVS", "assay": "nsRBNS (natural sequence RNA bind-n-seq); RBNS binding buffer (assumed for nsRBNS): 25 mM Tris pH 7.5, 150 mM KCl, 3 mM MgCl2, 0.01% Triton X-100, 500 ug/ml BSA, 20 U/ml SUPERase-In, 4 C; UNK is unkempt and MSI1 is Musashi-1; names of the RNAs are library labels; protein concentration not given here; high values mean tight binding", "units": {"binding signal": "enrichment R"}, "values": [{"binder": "B1", "binding signal": 0.425}, {"binder": "B2", "binding signal": 0.241}, {"binder": "B3", "binding signal": 0.742}, {"binder": "B4", "binding signal": 0.715}, {"binder": "B5", "binding signal": 0.389}, {"binder": "B6", "binding signal": 0.809}]}]}
